Assay results taken from the supplement of paper PMC10724272.
MIC of invasive clinical C. tropicalis isolates, CLSI broth microdilution (fluconazole 0.12-256 mg/L, up to 1,024 for the azole-resistant cluster and its neighbour group; other ranges not stated); higher = less susceptible. Call: susceptible or wild type [S] / resistant or non-wild type [R] by CLSI breakpoints or cut-offs; intermediate and dose-dependent carry no call. '<=' and '>=' at the end values are inferred; the source marks only some of them. Isolates are numbered anew.

What was measured:
Assay in all cases: CLSI broth microdilution.
itraconazole = compound: CCC(C)n1ncn(-c2ccc(N3CCN(c4ccc(OCC5COC(Cn6cncn6)(c6ccc(Cl)cc6Cl)O5)cc4)CC3)cc2)c1=O [itraconazole]
micafungin = compound: CCCCCOc1ccc(-c2cc(-c3ccc(C(=O)N[C@H]4C[C@@H](O)[C@@H](O)NC(=O)[C@@H]5[C@@H](O)[C@@H](C)CN5C(=O)[C@H]([C@H](O)CC(N)=O)NC(=O)[C@H]([C@H](O)[C@@H](O)c5ccc(O)c(OS(=O)(=O)O)c5)NC(=O)[C@@H]5C[C@@H](O)CN5C(=O)[C@H]([C@@H](C)O)NC4=O)cc3)no2)cc1 [micafungin]
anidulafungin = compound: CCCCCOc1ccc(-c2ccc(-c3ccc(C(=O)N[C@H]4C[C@@H](O)[C@@H](O)NC(=O)[C@@H]5[C@@H](O)[C@@H](C)CN5C(=O)[C@H]([C@@H](C)O)NC(=O)[C@H]([C@H](O)[C@@H](O)c5ccc(O)cc5)NC(=O)[C@@H]5C[C@@H](O)CN5C(=O)[C@H]([C@@H](C)O)NC4=O)cc3)cc2)cc1 [anidulafungin]
posaconazole = compound: CC[C@@H]([C@H](C)O)n1ncn(-c2ccc(N3CCN(c4ccc(OC[C@@H]5CO[C@@](Cn6cncn6)(c6ccc(F)cc6F)C5)cc4)CC3)cc2)c1=O [posaconazole]
caspofungin = compound: CC[C@H](C)C[C@H](C)CCCCCCCCC(=O)N[C@H]1C[C@@H](O)[C@@H](NCCN)NC(=O)[C@@H]2[C@@H](O)CCN2C(=O)[C@H]([C@H](O)CCN)NC(=O)[C@H]([C@H](O)[C@@H](O)c2ccc(O)cc2)NC(=O)[C@@H]2C[C@@H](O)CN2C(=O)[C@H]([C@@H](C)O)NC1=O [caspofungin]
voriconazole = compound: C[C@@H](c1ncncc1F)[C@](O)(Cn1cncn1)c1ccc(F)cc1F [voriconazole]
amphotericin B = compound: C[C@@H]1[C@H](O)[C@@H](C)/C=C/C=C/C=C/C=C/C=C/C=C/C=C/[C@H](O[C@@H]2O[C@H](C)[C@@H](O)[C@H](N)[C@@H]2O)C[C@@H]2O[C@](O)(C[C@@H](O)C[C@@H](O)[C@H](O)CC[C@@H](O)C[C@@H](O)CC(=O)O[C@H]1C)C[C@H](O)[C@H]2C(=O)O [amphotericin B]
flucytosine = compound: Nc1[nH]c(=O)ncc1F [flucytosine]
fluconazole = compound: OC(Cn1cncn1)(Cn1cncn1)c1ccc(F)cc1F [fluconazole]

Row | Test System | MIC (itraconazole) | MIC (micafungin) | MIC (anidulafungin) | MIC (posaconazole) | MIC (caspofungin) | MIC (voriconazole) | MIC (amphotericin B) | MIC (flucytosine) | MIC (fluconazole)
1 | Candida tropicalis isolate 314 (ERG11 copies: 2, Erg11p: no key change) | 0.12 mg/L [S] | 0.015 mg/L [S] | ≤ 0.015 mg/L [S] | 0.06 mg/L [S] | 0.015 mg/L [S] | 0.06 mg/L [S] | 1 mg/L [S] | ≤ 0.06 mg/L [S] | 1 mg/L [S]
2 | Candida tropicalis isolate 315 (ERG11 copies: 2, Erg11p: no key change) | 0.12 mg/L [S] | 0.03 mg/L [S] | 0.25 mg/L [S] | 0.12 mg/L [S] | 0.25 mg/L [S] | 0.06 mg/L [S] | 1 mg/L [S] | 0.12 mg/L [S] | 1 mg/L [S]
3 | Candida tropicalis isolate 316 (ERG11 copies: 2, Erg11p: Y132F, S154F (heterozygous)) | ≥ 16 mg/L [R] | 0.06 mg/L [S] | 0.25 mg/L [S] | ≥ 8 mg/L [R] | 0.06 mg/L [S] | ≥ 8 mg/L [R] | 1 mg/L [S] | ≤ 0.06 mg/L [S] | 256 mg/L [R]
4 | Candida tropicalis isolate 317 (ERG11 copies: 2, Erg11p: no key change) | 0.12 mg/L [S] | 0.03 mg/L [S] | ≤ 0.015 mg/L [S] | 0.12 mg/L [S] | 0.015 mg/L [S] | 0.12 mg/L [S] | 1 mg/L [S] | ≤ 0.06 mg/L [S] | 2 mg/L [S]
5 | Candida tropicalis isolate 318 (ERG11 copies: 2, Erg11p: no key change) | 0.12 mg/L [S] | 0.03 mg/L [S] | 0.03 mg/L [S] | 0.12 mg/L [S] | 0.03 mg/L [S] | 0.06 mg/L [S] | 0.5 mg/L [S] | ≤ 0.06 mg/L [S] | 1 mg/L [S]
6 | Candida tropicalis isolate 319 (ERG11 copies: 2, Erg11p: no key change) | 0.25 mg/L [S] | 0.06 mg/L [S] | 0.03 mg/L [S] | 0.25 mg/L [S] | 0.03 mg/L [S] | 0.06 mg/L [S] | 1 mg/L [S] | ≤ 0.06 mg/L [S] | 1 mg/L [S]
7 | Candida tropicalis isolate 320 (ERG11 copies: 2, Erg11p: no key change) | 0.25 mg/L [S] | 0.03 mg/L [S] | 0.12 mg/L [S] | 0.25 mg/L [S] | 0.06 mg/L [S] | 0.12 mg/L [S] | 0.5 mg/L [S] | 0.12 mg/L [S] | 2 mg/L [S]
8 | Candida tropicalis isolate 321 (ERG11 copies: 2, Erg11p: no key change) | 0.25 mg/L [S] | 0.03 mg/L [S] | 0.25 mg/L [S] | 0.25 mg/L [S] | 0.25 mg/L [S] | 0.12 mg/L [S] | 0.5 mg/L [S] | ≤ 0.06 mg/L [S] | 2 mg/L [S]
9 | Candida tropicalis isolate 322 (ERG11 copies: 2, Erg11p: no key change) | 0.12 mg/L [S] | 0.015 mg/L [S] | ≤ 0.015 mg/L [S] | 0.06 mg/L [S] | 0.015 mg/L [S] | 0.03 mg/L [S] | 1 mg/L [S] | ≤ 0.06 mg/L [S] | 1 mg/L [S]
10 | Candida tropicalis isolate 323 (ERG11 copies: 2, Erg11p: no key change) | 0.25 mg/L [S] | 0.06 mg/L [S] | 0.12 mg/L [S] | 0.5 mg/L [R] | 0.06 mg/L [S] | 0.25 µg/mL | 1 mg/L [S] | ≤ 0.06 mg/L [S] | 2 mg/L [S]
11 | Candida tropicalis isolate 324 (ERG11 copies: 2, Erg11p: no key change) | 0.03 mg/L [S] | 0.015 mg/L [S] | ≤ 0.015 mg/L [S] | 0.06 mg/L [S] | 0.03 mg/L [S] | 0.03 mg/L [S] | 0.25 mg/L [S] | ≤ 0.06 mg/L [S] | 0.5 mg/L [S]
12 | Candida tropicalis isolate 325 (ERG11 copies: 2, Erg11p: no key change) | 0.25 mg/L [S] | 0.03 mg/L [S] | 0.03 mg/L [S] | 0.25 mg/L [S] | 0.03 mg/L [S] | 0.25 µg/mL | 0.5 mg/L [S] | ≤ 0.06 mg/L [S] | 2 mg/L [S]
13 | Candida tropicalis isolate 326 (ERG11 copies: 4, Erg11p: Y132F, S154F (heterozygous)) | 0.25 mg/L [S] | 0.03 mg/L [S] | 0.06 mg/L [S] | 0.5 mg/L [R] | 0.06 mg/L [S] | ≥ 8 mg/L [R] | 1 mg/L [S] | ≤ 0.06 mg/L [S] | 128 mg/L [R]
14 | Candida tropicalis isolate 327 (ERG11 copies: 2, Erg11p: no key change) | 0.25 mg/L [S] | 0.03 mg/L [S] | 0.12 mg/L [S] | 0.25 mg/L [S] | 0.06 mg/L [S] | 0.06 mg/L [S] | 1 mg/L [S] | ≤ 0.06 mg/L [S] | 2 mg/L [S]
15 | Candida tropicalis isolate 328 (ERG11 copies: 2, Erg11p: Y132F, S154F (homozygous)) | 0.12 mg/L [S] | 0.03 mg/L [S] | 0.03 mg/L [S] | 0.25 mg/L [S] | 0.03 mg/L [S] | 1 mg/L [R] | 1 mg/L [S] | ≤ 0.06 mg/L [S] | 64 mg/L [R]
16 | Candida tropicalis isolate 329 (ERG11 copies: 2, Erg11p: no key change) | 0.5 mg/L [S] | 0.06 mg/L [S] | 0.12 mg/L [S] | 0.5 mg/L [R] | 0.25 mg/L [S] | ≥ 8 mg/L [R] | 0.5 mg/L [S] | ≤ 0.06 mg/L [S] | 256 mg/L [R]
17 | Candida tropicalis isolate 330 (ERG11 copies: 7, Erg11p: Y132F, S154F (heterozygous)) | 0.5 mg/L [S] | 0.03 mg/L [S] | 0.12 mg/L [S] | 0.5 mg/L [R] | 0.03 mg/L [S] | ≥ 8 mg/L [R] | 1 mg/L [S] | ≤ 0.06 mg/L [S] | 512 mg/L [R]
18 | Candida tropicalis isolate 331 (ERG11 copies: 2, Erg11p: no key change) | 1 mg/L [R] | 0.03 mg/L [S] | 0.06 mg/L [S] | 1 mg/L [R] | 0.06 mg/L [S] | ≥ 8 mg/L [R] | 2 mg/L [S] | ≤ 0.06 mg/L [S] | 256 mg/L [R]
